Each structure is given as a SMILES string. ± gives the standard deviation of the averaged measurements. The list shows a part of the results. Single values are uncertain, as repeats are few or missing.

For the experiment, the system named is mouse mesenchymal chondrosarcoma cells (HEY1-NCOA2). As to the kind of experiment: XTT absorbance relative to DMSO control (cell viability) (fraction of DMSO control); higher = more viable cells / less growth inhibition.
Compound `C=C1[C@@H](C)[C@H]2[C@H](Cc3ccccc3)NC(=O)[C@]23[C@H](OC(C)=O)/C=C/[C@@](C)(O)C(=O)[C@@H](C)C/C=C/[C@H]3[C@@H]1O` [Cytochalasin D] showed an XTT absorbance of 0.436.

`C[C@@H]1O[C@@H](O[C@H]2C[C@@H](O)[C@]3(CO)[C@H]4[C@H](O)C[C@]5(C)[C@@H](C6=CC(=O)OC6)CC[C@]5(O)[C@@H]4CC[C@]3(O)C2)[C@H](O)[C@H](O)[C@H]1O` [Ouabain] had an XTT absorbance of 0.929.

For `C[C@H]1O[C@@H](n2cnc3c(N)ncnc32)C[C@@H]1O` [2',5'-dideoxyadenosine], the XTT absorbance is 0.92.

`C[C@@]12C(=O)OC(=O)[C@]1(C)[C@H]1CC[C@@H]2O1` [Cantharidin] displayed an XTT absorbance of 0.832.

Turning to `CNc1ccc2oc(C[C@H]3O[C@@]4(CC[C@H]3C)O[C@H]([C@H](C)C(=O)c3ccc[nH]3)[C@H](C)C[C@H]4C)nc2c1C(=O)O`, the XTT absorbance is 0.823.

`CC[C@@]1(O)C(=O)OCc2c1cc1n(c2=O)Cc2cc3ccccc3nc2-1` [Camptothecin] showed an XTT absorbance of 0.435.

Regarding `CCC1(c2ccc(N)cc2)CCC(=O)NC1=O` (configuration not stated) [Aminoglutethimide], the XTT absorbance stood at 0.998.

With `C[C@@H]1C[C@@H]([C@H](O)CC2CC(=O)NC(=O)C2)C(=O)[C@@H](C)C1` [Cycloheximide], the XTT absorbance was 0.263.

Compound `C/C=C(/C)C(=O)O[C@H]1C(C)=C2[C@H]([C@@H]1OC(=O)CCCCCCC)[C@@](C)(OC(C)=O)C[C@H](OC(=O)CCC)[C@@]1(O)[C@H]2OC(=O)[C@@]1(C)O` [Thapsigargin] had an XTT absorbance of 0.279.

`NC(=S)N/N=C\c1coc2ccccc2c1=O.[Cl][Cu][Cl]` [Akt Inhibitor XI] yielded an XTT absorbance of 0.972.

The compound `CC(C)(c1ccc(OCC2CO2)cc1)c1ccc(OCC2CO2)cc1` (configuration not stated) yielded an XTT absorbance of 0.939.

Compound `C/C(O)=C(\C#N)C(=O)Nc1cc(Br)ccc1Br` had an XTT absorbance of 0.983 ± 0.015.

Values taken from the supplement of paper PMC10322689.
